# Results reported in PMC10668032.
# The other results are listed elsewhere or left out. At the low end of the ranking the order means little.
# Target: SIX1 homeodomain (reference allele) (UniProt Q15475)
# Assay: universal protein binding microarray
# Conditions: Universal all-10-mer PBM (8x60K, AMADID 030236), 300 nM GST-tagged protein, Alexa Fluor 488 anti-GST; buffer, salt, pH and temperature not stated; high values mean tight binding; most listed sequences are background and not binding sites; double strand, one strand shown
row,Sequence,binding signal [E-score]
1,CGAGTACG,-0.071
2,ATCAAAAT,0.0502
3,CCCCTTGA,0.187
4,AAGCGATC,0.239
5,CTACGTTA,-0.124
6,CCAAGACG,-0.0177
7,ACAACAGA,-0.255
8,AAGATTCC,-0.0643
9,ATGCAAAC,-0.057
10,GCCTTACA,-0.11
11,ATAGTACC,0.129
12,GAGCTAAC,-0.132
13,CTTTGCGA,-0.0156
14,AAAGGATC,0.279
15,GATGCACC,0.0091
16,AAACAAGT,-0.228
17,AGCTGCTA,-0.115
18,CGCCTAAC,-0.0471
19,AGATCCGG,0.358
20,ACATCAGC,-0.106
21,AAAAAATC,-0.168
22,CAGATGAG,0.203

row,Sequence,binding signal [E-score]
1,AGGAAACA,-0.15
2,ACTGGAGG,-0.0329
3,GCGACGTA,0.0775
4,ATAAAAGG,-0.0649
5,GAGGCAAC,-0.07
6,CGATCGCG,0.249
7,CGCCGCGC,-0.126
8,CGGAGAGC,0.0276
9,ATCGCAGG,0.181
10,CAAAAGTC,-0.243
11,TCATCCCA,0.0923
12,CTACTAGA,0.109
13,ACCAGGCA,0.0954
14,ACTGTTTA,-0.124
15,CGACCTCG,-0.0668
16,CCATGAAG,0.0749
17,ACACGAAG,0.0155
18,CGGGCAGC,0.02
19,CTACATTC,-0.158
20,ACCCTGTC,-0.0544
21,CTAATTTC,-0.172
22,CTAAACGC,-0.175

row,Sequence,binding signal [E-score]
1,ACCCGGTG,0.26
2,ACTCGGTC,-0.198
3,AACGGGGA,0.0258
4,ACCAGGAC,-0.104
5,ACAACAGG,-0.143
6,AACTTTTC,-0.267
7,GACATGAA,-0.213
8,CGTGCAGA,-0.0652
9,ACAAAGAC,-0.205
10,AACTTATG,-0.295
11,CCACAAAG,-0.0519
12,CACGTGGA,0.116
13,CGAGATGA,0.187
14,AAACGCTT,-0.28
15,AGGACCAC,-0.0631
16,CAGGTCCC,-0.238
17,AGCCACAG,-0.177
18,GACACTTA,0.0918
19,CGCGCACA,-0.00883
20,GCCGTGCA,-0.298
21,CTTTGTCA,-0.139
22,GCCGTAGC,-0.0538

row,Sequence,binding signal [E-score]
1,ATCGCCGG,0.253
2,AGCTGTAT,0.186
3,GTCGTTTA,-0.127
4,CGTGAAGA,-0.0754
5,ACTATTTG,-0.216
6,ACTAGCGC,-0.0433
7,TGACGTCA,-0.117
8,CCGCAACA,-0.0989
9,CATGGGGC,-0.0135
10,CCAATCCC,0.153
11,TATCTCCA,0.282
12,ACGAAGGA,-0.0331
13,GAATAGGA,0.0357
14,CCCCGAGA,0.113
15,GCTTCCGA,-0.0513
16,CTGGAAAG,-0.207
17,TCTTTGCA,-0.0858
18,ACAAAACG,-0.193
19,ACTCCCCT,0.22
20,AAAGTATT,0.13
21,CTCCGCAC,-0.153
22,GTATCCTA,0.409

row,Sequence,binding signal [E-score]
1,ATTTACCC,0.0509
2,GATGCTGC,0.0718
3,GTTAATTA,-0.0179
4,ACGACACA,-0.0666
5,GGACTCCA,-0.161
6,CCGCTCAA,0.0831
7,AGAATTAT,-0.029
8,GTCCCAAA,-0.232
9,GGACCCAA,-0.0805
10,GCGTAAGA,-0.178
11,CTTGCGGA,-0.0932
12,GAACGATA,0.383
13,GCTCCGCA,-0.282
14,AGAGCCAG,-0.159
15,GGACTTGA,-0.105
16,GATACATC,0.43
17,CCGTAAAC,0.0655
18,ATACCAGA,0.299
19,CTGGGAAG,-0.14
20,ATGATACG,0.48
21,AGTGAGAC,0.198
22,GAAAGCGC,-0.169
